According to patent US20150274807A1 (SUZHOU ALPHAMAB, published 2015):

Columns and labels:
[1] = target: the molecule itself; test: co-transfection 1:1 in 293H, protein A pull-down, non-reducing SDS-PAGE densitometry; co-expressed with Fc K392D/K409D/D399K
Experimental: (§1) The expression vectors harbor 8 mutation combinations in step 3 were separately transfected with PEI into suspension adapted 293H cells (ATCC CRL-1573), the co-transfection ratio of plasmids pcDNA3.1-zeo-ScFv-Fc to pcMVβ-SP-Fc was 1:1, and after 3-4 days, cell culture supernatant was collected. Immuno precipitation was performed with protein A agarose resin, and the content of the homodimer proteins or antibodies (ScFv-Fc/ScFv-Fc and Fc/Fc) and the heterodimer protein or antibody (ScFv-Fc/Fc) was detected by SDS-PAGE under non-reducing conditions. Gel-Pro professional image analysis software (Media Cybernetics company) was used for analyzing the proportion of the homodimer proteins or antibodies (ScFv-Fc/ScFv-Fc and Fc/Fc) and the heterodimer protein or antibody (ScFv-Fc/Fc). […] In addition, when E357K/K370E/K392D/K409D/D399K (mutation combination 4) was introduced on Fc, the stability should be further investigated because of the appearance of Fc monomers (about 6%).

[2] = target: T1, Fc protein E357K/K370E/K392D/K409D/D399K (human); test: co-transfection 1:1 in 293H, protein A pull-down, non-reducing SDS-PAGE densitometry
T1 construct: Monomer chain; also called Fc-mix13; Fc of mutation combination 4
T1 chain: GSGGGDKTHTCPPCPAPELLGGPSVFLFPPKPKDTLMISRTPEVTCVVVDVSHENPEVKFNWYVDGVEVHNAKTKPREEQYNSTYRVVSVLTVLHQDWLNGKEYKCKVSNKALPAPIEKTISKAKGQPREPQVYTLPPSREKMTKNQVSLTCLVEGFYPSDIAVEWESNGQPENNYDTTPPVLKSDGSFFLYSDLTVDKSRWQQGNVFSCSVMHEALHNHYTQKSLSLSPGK
Experimental: as §1

B1: ScFv-Fc fusion protein, wild type (Fc fusion)
chain: EVQLLESGGGVVQPGRSLRLSCIASGFTFSSYPMTWVRQAPGKGLEWVASISYDGSYKYKADSMKGRLTISRDNSKNTLYLEMNSLTAEDTAVYYCARTAFFNAYDFWGQGTLVTVSSASTKGPSVGGGGSGGGGSEIVMTQSPATLSVSPGERATLSCRASQSVRSNLAWYQQKPGQAPRLLIYAASTRATGIPARFSGSGSGTEFTLTISSLQSEDFAVYYCQQYNEWFRTSGQGTKVEIKR[human IgG1 Fc with changes cut from this listing]
notes: the read-out is the pairing of two chains into a dimer; The Fc part is human IgG1; also called WT
[1]
  proportion of ScFv-Fc homodimer on SDS-PAGE: 44.5%
[2]
  proportion of ScFv-Fc/Fc heterodimer on SDS-PAGE: 12.1%
